Results: the supplement of paper PMC4967469
The IC50 comes from the fitted curve, where viability falls to half of the control; where the fit passes the top or lowest dose, that dose stands as a limit. The AUC spans the tested range (256-fold, ending at the top dose) of the same fit; the more sensitive the line, the further below 1. For some assays here: Any top dose called inferred is not printed in the source and was worked back from the curve model.

How the values were obtained:
Test in all cases: Viability of human cancer cell lines after 72 h of drug (GDSC screen)
Gefitinib = compound: COc1cc2ncnc(Nc3ccc(F)c(Cl)c3)c2cc1OCCCN1CCOCC1 [Gefitinib]; details: top dose 0.5 µM
Experimental: (§1)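 Human cancer cell lines in 384-well plates, medium with 10% serum, drug for 72 h over a 256-fold dose range (nine 2-fold or five 4-fold steps up to the top dose). Adherent lines were fixed and stained with the nucleic acid dye Syto60, suspension lines read with resazurin; signal relative to control wells, capped at 0 and 100%. One two-parameter sigmoid per drug and line, fitted in a mixed model over all curves with the slope shared within a line.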

NU-7441 = compound: O=c1cc(N2CCOCC2)oc2c(-c3cccc4c3sc3ccccc34)cccc12 [NU-7441]; details: top dose 2 µM; top dose inferred
Experimental: as §1

Phenformin = compound: N=C(N)NC(=N)NCCc1ccccc1 [Phenformin]; details: top dose 4000 µM; top dose inferred
Experimental: as §1

S-Trityl-L-cysteine = compound: N[C@@H](CSC(c1ccccc1)(c1ccccc1)c1ccccc1)C(=O)O [S-Trityl-L-cysteine]; details: top dose 5.12 µM; top dose inferred
Experimental: as §1

EHT 1864 = compound: O=c1cc(CN2CCOCC2)occ1OCCCCCSc1ccnc2cc(C(F)(F)F)ccc12 [EHT 1864]; details: top dose 10 µM; top dose inferred
Experimental: as §1

Erlotinib = compound: C#Cc1cccc(Nc2ncnc3cc(OCCOC)c(OCCOC)cc23)c1 [Erlotinib]; details: top dose 2 µM
Experimental: as §1

AG-014699 = compound: CNCc1ccc(-c2[nH]c3cc(F)cc4c3c2CCNC4=O)cc1 [AG-014699]; details: top dose 5 µM; top dose inferred
Experimental: as §1

WHI-P97 = compound: COc1cc2ncnc(Nc3cc(Br)c(O)c(Br)c3)c2cc1OC [WHI-P97]; details: top dose 10.24 µM; top dose inferred
Experimental: as §1

XL-184 = compound: COc1cc2nccc(Oc3ccc(NC(=O)C4(C(=O)Nc5ccc(F)cc5)CC4)cc3)c2cc1OC [XL-184]; details: top dose 5.12 µM; top dose inferred
Experimental: as §1

QL-XI-92 = compound: C=CC(=O)Nc1cc(NC(=O)c2ccc(C)c(NC(=O)c3ccno3)c2)cc(C(F)(F)F)c1 [QL-XI-92]; details: top dose 10.24 µM; top dose inferred
Experimental: as §1

Vinorelbine = compound: CCC1=C[C@@H]2CN(C1)Cc1c([nH]c3ccccc13)[C@@](C(=O)OC)(c1cc3c(cc1OC)N(C)[C@H]1[C@@](O)(C(=O)OC)[C@H](OC(C)=O)[C@]4(CC)C=CCN5CC[C@]31[C@@H]54)C2 [Vinorelbine]; details: top dose 0.064 µM; top dose inferred
Experimental: as §1

Cell Line	AUC (Gefitinib)	IC50 (Gefitinib) [µM]	AUC (NU-7441)	IC50 (NU-7441) [µM]	AUC (Phenformin)	IC50 (Phenformin) [µM]	AUC (S-Trityl-L-cysteine)	IC50 (S-Trityl-L-cysteine) [µM]	AUC (EHT 1864)	IC50 (EHT 1864) [µM]	AUC (Erlotinib)	IC50 (Erlotinib) [µM]	AUC (AG-014699)	IC50 (AG-014699) [µM]	AUC (WHI-P97)	IC50 (WHI-P97) [µM]	AUC (XL-184)	IC50 (XL-184) [µM]	AUC (QL-XI-92)	IC50 (QL-XI-92) [µM]	AUC (Vinorelbine)	IC50 (Vinorelbine) [µM]
BE2-M17 (neuroblastoma, adherent)	0.948	> 0.5	0.967	> 2	0.888	> 4000	0.784	2.24	0.969	> 10	0.96	> 2	0.987	> 5	0.982	> 10.2	0.985	> 5.12	0.987	> 10.2	0.875	> 0.064
BL-41 (Burkitt lymphoma, suspension)	0.992	> 0.5	0.984	> 2	0.647	575	0.644	0.722	0.986	> 10	0.964	> 2	0.994	> 5	0.955	> 10.2	0.853	2.62	0.619	1.25	0.442	0.00288
BV-173 (chronic myeloid leukaemia, suspension)	0.95	> 0.5	0.893	1.88	0.91	> 4000	0.56	0.456	0.894	9.49	0.95	> 2	0.858	3.36	0.946	> 10.2	0.737	1.37	0.61	1.24	0.599	0.00721
CESS (acute myeloid leukaemia, suspension)	0.986	> 0.5	0.984	> 2	0.464	203	0.6	0.577	0.986	> 10	0.991	> 2	0.99	> 5	0.935	> 10.2	0.962	> 5.12	0.809	4.44	0.561	0.00571
CL-11 (large intestine, adherent)	0.985	> 0.5	0.896	> 2	0.954	> 4000	0.971	> 5.12	0.985	> 10	0.987	> 2	0.962	> 5	0.987	> 10.2	0.987	> 5.12	0.98	> 10.2	0.981	> 0.064
CMK (acute myeloid leukaemia, suspension)	0.974	> 0.5	0.978	> 2	0.382	125	0.653	0.791	0.933	> 10	0.991	> 2	0.984	> 5	0.94	> 10.2	0.96	> 5.12	0.854	6.2	0.71	0.014
COLO-668 (small cell lung carcinoma, adherent)	0.958	> 0.5	0.986	> 2	0.682	808	0.928	> 5.12	0.951	> 10	0.949	> 2	0.989	> 5	0.989	> 10.2	0.927	> 5.12	0.935	> 10.2	0.802	0.0313
COR-L88 (small cell lung carcinoma, adherent)	0.963	> 0.5	0.984	> 2	0.831	3210	0.862	> 5.12	0.938	> 10	0.98	> 2	0.977	> 5	0.974	> 10.2	0.965	> 5.12	0.972	> 10.2	0.778	0.031
CTV-1 (acute myeloid leukaemia, suspension)	0.965	> 0.5	0.97	> 2	0.432	169	0.567	0.469	0.981	> 10	0.992	> 2	0.958	> 5	0.971	> 10.2	0.825	2.3	0.883	7.28	0.406	0.00233
D-336MG (glioma, adherent)	0.965	> 0.5	0.938	> 2	0.703	1110	0.898	> 5.12	0.938	> 10	0.969	> 2	0.963	> 5	0.97	> 10.2	0.853	> 5.12	0.903	> 10.2	0.816	0.0489
DG-75 (Burkitt lymphoma, suspension)	0.973	> 0.5	0.861	1.73	0.666	730	0.859	4.35	0.914	> 10	0.987	> 2	0.928	> 5	0.982	> 10.2	0.987	> 5.12	0.977	> 10.2	0.886	> 0.064
